From US20070099199A1
Values joined by “and” are separate entries in the source; they are usually repeats but may differ in a detail not shown here. Equal entries are not always repeated.

Key:
[1] = target: T1, HPV16 E6 C-terminal PDZ ligand (PL) peptide, biotinylated (human papillomavirus type 16); assay: G assay ELISA; immobilised GST-PDZ, biotin-peptide 10 uM
[2] = target: T1, HPV16 E6 C-terminal PDZ ligand (PL) …; assay: Matrix/G assay ELISA; E6 peptide titrated on GST-PDZ
[3] = target: T1, HPV16 E6 C-terminal PDZ ligand (PL) …; assay: G assay ELISA; E6 PL peptide titrated on constant GST-PDZ
[4] = target: HPV E6 #16 PDZ ligand peptide (C-terminal peptide of the E6 protein of HPV 16) (HPV 16); assay: G assay ELISA, immobilised GST-PDZ, biotin peptide 10 uM

B1: GST-KIAA1526 PDZ domain 1, clone #119.1 (protein)
chain: [about 200 residues not printed]SDLIEGRPDSAGPGEVRLVSLRRAKAHEGLGFSIRGGSEHGVGIYVSLVEPGSLAEKEGLRVGDQILRVNDKSLARVTHAEAVKALKGSKKLVLSVYSAGRIPGGYVTNH
Ave OD [1]: 0.425 A450 nm
OD S/N (ratio vs GST only) [1]: 1.38

B2: GST-KIAA1719 PDZ domain 5 (protein)
chain: [about 200 residues not printed]SDLIEGRIQTTGAVSYTVELKRYGGPLGITISGTEEPFDPIVISGLTKRGLAERTGAIHVGDRILAINNVSLKGRPLSEAIHLLQVAGETVTLKIKKQLDR
Ave OD [1]: 0.39 A450 nm
OD S/N (ratio vs GST only) [1]: 1.81

B3: GST-DLG2 PDZ domain 3 (protein)
chain: [about 200 residues not printed]SDLIEGRIWAVSLEGEPRKVVLHKGSTGLGFNIVGGEDGEGIFVSFILAGGPADLSGELQRGDQILSVNGIDLRGASHEQAAAALKGAGQTVTIIAQYQPED
EC50 [2]: 1.6 µM
EC50 [3]: 1.6 µM
Ave OD [4]: 3.43 A450 nm and 1.27 A450 nm
OD S/N (ratio to GST-only well) [4]: 20.4 and 8.53

B4: GST-HEMBA 1003117 PDZ domain 1, clone #226.2 (protein)
chain: [about 200 residues not printed]SDLIEGREDFCYVFTVELERGPSGLGMGLIDGMHTHLGAPGLYIQTLLPGSPAAADGRLSLGDRILEVNGSSLLGLGYLRAVDLIRHGGKKMRFLVAKSDVETAKKI
Ave OD [1]: 0.36 A450 nm
OD S/N (ratio vs GST only) [1]: 1.66

B5: GST-MAGI1 PDZ domain 2 (protein)
chain: [about 200 residues not printed]SDLIEGRPSELKGKFIHTKLRKSSRGFGFTVVGGDEPDEFLQIKSLVLDGPAALDGKMETGDVIVSVNDTCVLGHTHAQVVKIFQSIPIGASVDLELCRGYPLPFDPDDPN
EC50 [2]: 0.056 µM

B6: GST-PTPL1 PDZ domain 2 (protein)
chain: [about 200 residues not printed]SDLIEGRGDIFEVELAKNDNSLGISVTGGVNTSVRHGGIYVKAVIPQGAAESDGRIHKGDRVLAVNGVSLEGATHKQAVETLRNTGQVVHLLLEKGQSPTSK
Ave OD [1]: 0.348 A450 nm
OD S/N (ratio vs GST only) [1]: 1.8

B7: GST-PDZK1 PDZ domains 2, 3, 4 (protein)
chain: [about 200 residues not printed]SDLIEGRQTWTQPRLCYLVKEGGSYGFSLKTVQGKKGVYMTDITPQGVAMRAGVLADDHLIEVNGENVEDASHEEVVEKVKKSGSRVMFLLVDKETDKRHVEQKIQFKRETASLKLLPHQPRIVEMKKGSNGYGFYLRAGSEQKGQIIKDIDSGSPAEEAGLKNNDLVVAVNGESVETLDHDSVVEMIRKGGDQTSLLVVDKETDNMYRLAHFSPFLYYQSQELPNGSVKEAPAPTPTSLEVSSPPDTTEEVDHKPKLCRLAKGENGYGFHLNAIRGLPGSFIKEVQKGGPADLAGLEDEDVIIEVNGVNVLDEPYEKVVDRIQSSGKNVTLLVCGKKAYDYFQAK
Ave OD [4]: 0.518 A450 nm
OD S/N (ratio to GST-only well) [4]: 2.64

B8: GST-SIP1 PDZ domain 1 (protein)
chain: [about 200 residues not printed]SDLIEGRIRLCRLVRGEQGYGFHLHGEKGRRGQFIRRVEPGSPAEAAALRAGDRLVEVNGVNVEGETHHQVVQRIKAVEGQTRLLVVDQN
EC50 [2]: 7.5 µM
EC50 [3]: 7.5 µM

B9: GST-NeDLG PDZ domains 1, 2 (protein)
chain: [about 200 residues not printed]SDLIEGRYEEIVLERGNSGLGFSIAGGIDNPHVPDDPGIFITKIIPGGAAAMDGRLGVNDCVLRVNEVDVSEVVHSRAVEALKEAGPVVRLVVRRRQPPPETIMEVNLLKGPKGLGFSIAGGIGNQHIPGDNSIYITKIIEGGAAQKDGRLQIGDRLLAVNNTNLQDVRHEEAVASLKNTSDMVYLKVAKPGSL
Ave OD [4]: 3.4 A450 nm and 3.12 A450 nm
OD S/N (ratio to GST-only well) [4]: 19.8 and 17.1

B10: GST-DLG3 PDZ domains 1-2 (protein)
chain: [about 200 residues not printed]SDLIEGRYEEIVLERGNSGLGFSIAGGIDNPHVPDDPGIFITKIIPGGAAAMDGRLGVNDCVLRVNEVDVSEVVHSRAVEALKEAGPVVRLVVRRRQPPPETIMEVNLLKGPKGLGFSIAGGIGNQHIPGDNSIYITKIIEGGAAQKDGRLQIGDRLLAVNNTNLQDVRHEEAVASLKNTSDMVYLKVAKPGSL
EC50 [2]: 3.8 µM
EC50 [3]: 3.8 µM

B11: GST-MINT1 PDZ domains 1, 2 (protein)
chain: [about 200 residues not printed]SDLIEGRIHFSKSENCKDVFIEKQKGEILGVVIVESGWGSILPTVIIANMMHGGPAEKSGKLNIGDQIMSINGTSLVGLPLSTCQSIIKGLKNQSRVKLNIVRCPPVTTVLIRRPDLRYQLGFSVQNGIICSLMRGGIAERGGVRVGHRIIEINGQSVVATPHEKIVHILSNAVGEIHMKTMPAAMYRLL
Ave OD [4]: 0.608 A450 nm
OD S/N (ratio to GST-only well) [4]: 2.11
Ave OD [1]: 0.365 A450 nm
OD S/N (ratio vs GST only) [1]: 1.42
